# Hit rate of the full screen: of about 310,000 compounds, about 2,200 (0.71%) showed an effect of 50% or more. The effect is printed as a negative number. The list shows a part of the results.
# Target: human ether-à-go-go-related gene (hERG) potassium channel (human, UniProt Q12809)
# Test: primary screen, population patch clamp on CHO cells stably expressing hERG
# human ether-à-go-go-related gene (hERG) potassium channel, sequence (Q12809 whole entry, looked up): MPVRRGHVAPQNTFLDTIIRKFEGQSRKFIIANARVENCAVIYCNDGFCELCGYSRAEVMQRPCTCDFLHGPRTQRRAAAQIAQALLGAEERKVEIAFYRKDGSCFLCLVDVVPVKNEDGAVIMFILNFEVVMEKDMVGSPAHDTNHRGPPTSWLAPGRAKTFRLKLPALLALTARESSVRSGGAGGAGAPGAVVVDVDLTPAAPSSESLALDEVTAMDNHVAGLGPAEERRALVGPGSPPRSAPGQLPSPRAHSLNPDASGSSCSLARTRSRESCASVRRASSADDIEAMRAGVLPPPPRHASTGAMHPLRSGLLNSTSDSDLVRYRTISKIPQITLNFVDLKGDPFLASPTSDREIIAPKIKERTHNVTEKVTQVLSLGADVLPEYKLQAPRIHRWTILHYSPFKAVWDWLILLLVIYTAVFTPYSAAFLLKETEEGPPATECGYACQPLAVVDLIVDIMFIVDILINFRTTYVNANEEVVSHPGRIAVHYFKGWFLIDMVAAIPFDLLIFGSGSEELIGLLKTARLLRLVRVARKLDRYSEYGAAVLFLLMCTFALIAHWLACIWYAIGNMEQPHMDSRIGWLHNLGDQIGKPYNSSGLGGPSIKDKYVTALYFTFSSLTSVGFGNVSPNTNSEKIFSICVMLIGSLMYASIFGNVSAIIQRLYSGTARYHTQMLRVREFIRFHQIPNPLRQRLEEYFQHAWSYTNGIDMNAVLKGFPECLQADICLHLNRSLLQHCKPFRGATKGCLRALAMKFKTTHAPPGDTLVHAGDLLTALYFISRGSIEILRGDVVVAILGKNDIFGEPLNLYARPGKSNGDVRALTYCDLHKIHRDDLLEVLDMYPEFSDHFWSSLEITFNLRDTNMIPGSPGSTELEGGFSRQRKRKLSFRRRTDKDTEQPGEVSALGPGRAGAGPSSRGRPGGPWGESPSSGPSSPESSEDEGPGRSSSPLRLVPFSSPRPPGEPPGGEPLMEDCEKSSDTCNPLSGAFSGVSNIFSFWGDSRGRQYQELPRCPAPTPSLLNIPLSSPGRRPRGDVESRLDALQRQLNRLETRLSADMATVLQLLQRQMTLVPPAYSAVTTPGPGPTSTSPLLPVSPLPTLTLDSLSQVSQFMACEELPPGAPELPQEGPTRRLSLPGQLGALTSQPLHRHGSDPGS
row,Structure (SMILES),"hERG current change (%, negative = inhibition) at 1uM [%]"
1,Cc1ccc(NC(=O)CN(C)C(C)C(=O)N2CC(C)CC(C)C2)cc1 (centres unmarked),9.07
2,Cc1nn(-c2ccc(N3CCCCC3)nn2)c(C)c1CCC(=O)Nc1ccc(F)c(F)c1,-9.66
3,Cc1cccc(C)c1NC(=S)Nc1ccccc1C(=O)NCc1ccco1,-3.55
4,COc1cccc(C(=O)N=c2sc3cc(S(C)(=O)=O)ccc3n2C)c1,19.1
5,CCO/C=C/C(O)(CNC(=O)COc1ccccc1F)C(F)(F)F (centres unmarked),19.8
6,S=C1NC(c2ccccc2)N2C(=S)NC(c3ccccc3)N12 (centres unmarked),3.38
7,CCCn1c(NC(=O)c2ccc(C)cc2)nc2ccccc21,-0.02
8,CCC(=O)c1cc2c(C)cc(=O)oc2c(C)c1OC(C)=O,7.37
9,COc1cc2c(cc1OC)/C(=C/C#N)NC(C)(C)C2,7.09
10,O=C(c1cc2cc(Cl)ccc2[nH]1)N1CCN(c2ccc(F)cc2)CC1,22.8
11,CCCCNC(=O)C(NS(=O)(=O)c1cccc2nsnc12)c1ccccc1 (centres unmarked),11.2
12,CC(C)n1cnc2c(Nc3cccc(F)c3)nc(NCCO)nc21,13.6
13,Cc1cc(OCc2ccccc2)ccc1/C(O)=C1/C(=O)C(=O)N(Cc2cccnc2)C1c1ccncc1 (centres unmarked),7.48
14,COc1ccccc1CCNC1CCC(C)CC1 (centres unmarked),9.05
15,COc1ccccc1N1CCN(C(=O)COc2ccc(S(=O)(=O)NC(C)(C)C)cc2)CC1,7.41
16,Cc1cccc(C(=O)O/N=C/c2ccc(Br)cc2)c1,16.2
17,CC(C)c1ccc(NC2CCCN(C(=O)c3cc(C(C)C)nc(N)n3)C2)cc1 (centres unmarked),6.58
18,NS(=O)(=O)c1ccc(N/N=C/c2cn(-c3ccccc3)nc2-c2cccs2)c([N+](=O)[O-])c1,13.7
19,COc1ccc(NC(=O)Nc2cc(C)ccc2F)cc1OC,4.91
20,Cc1ccc(NC(=O)CN(C)C(=O)COC(=O)c2nc3nccc(C)n3n2)cc1,7.92
21,CCOC(=O)Cn1nnc(-c2ccc([N+](=O)[O-])cc2)n1,10.7
22,CN(C)S(=O)(=O)N1CCC(Oc2ccc(C(=O)NC3CCCCC3)cc2)CC1,30.9
23,CCOC(=O)c1ccc(NC(=S)NNC(=O)C2(C)CC2(Cl)Cl)cc1 (centres unmarked),15.7

row,Structure (SMILES),"hERG current change (%, negative = inhibition) at 1uM [%]"
1,COc1ccccc1Nc1n[nH]c(=S)s1,3.99
2,C/C(=N\NC(=O)CN(c1ccc(C)cc1)S(C)(=O)=O)c1cccs1,8.96
3,COc1cccc(NC(=O)CN(C)C(=O)c2ccc(NC(=O)CC3SC(N4CCCCC4)=NC3=O)cc2)c1 (centres unmarked),9.04
4,Cc1ccc(N2CCN(S(=O)(=O)c3ccc4c(c3)n(C)c(=O)c(=O)n4C)CC2C)cc1 (centres unmarked),4.38
5,CCCc1nc2c(C)cc(-c3nc4ccccc4n3C)cc2n1Cc1ccc(-c2ccccc2C(=O)O)cc1,-2.75
6,COc1cccc2cc(C(=O)C3=C(O)C(=O)N(CCN(C)C)C3c3ccc(F)cc3)oc12 (centres unmarked),2.45
7,O=C(O)CCCCC1SCC2NC(=O)NC21 (centres unmarked),9.86
8,Cc1[nH]n(-c2ccccc2)c(=O)c1N=Nc1ccc(C#N)cc1,12.1
9,C=CCc1cccc(/C=N/NC(=O)c2ccccc2OC)c1O,15.6
10,Cc1nonc1NC(=O)Nc1cccnc1,-3.05
11,Cc1ccccc1NC(=O)CSc1nnc(-c2ccoc2C)n1CCc1ccccc1,-9.75
12,Cc1cc(C)n(-c2nc(SCC(=O)O)c3c4c(sc3n2)COC(C)(C)C4)n1,4.39
13,O=C(Nc1cc(S(=O)(=O)N2CCCCC2)ccc1Oc1ccccc1)C1=COCCO1,1.18
14,COC(=O)c1sccc1-c1ccc(/C=N/OC(=O)c2ccccc2)o1,9.65
15,Cn1c(SCC(=O)NNC(=O)c2ccccc2)nnc1C1CC1,11.6
16,O=[N+]([O-])c1ccc(NC(=S)N2CCCC2)cc1,11
17,O=C(Oc1c(Cl)cc(Cl)c2cccnc12)c1ccco1,6.64
18,O=S(=O)(Nc1ccncc1Cl)c1ccccc1,-1.28
19,Cc1nn(CC#N)c(=O)n1-c1ccc(F)cc1,13.5
20,CCCSc1nc2sc3c(c2c(=O)[nH]1)CCN(Cc1ccccc1)C3,11.1
21,CCN(CC)CCCNCC(=O)Nc1ccc(OC)c(Cl)c1.O=C(O)C(=O)O,0.937
22,CCOC(=O)c1c(C)n(C)c2ccc(OC(=O)c3ccoc3)cc12,13.4
23,N#C/C(=C\c1ccc(N2CCOCC2)o1)C(=O)NCC1CCCO1 (centres unmarked),11.6

row,Structure (SMILES),"hERG current change (%, negative = inhibition) at 1uM [%]"
1,CCOC(=O)C1C(c2ccc3c(c2)OCO3)NC(=O)NC1(O)C(F)(F)F (centres unmarked),13.9
2,O=c1cc(CN2CC=C(c3ccccc3)CC2)c2c(ccc3ccccc32)o1,4.72
3,CC(=O)c1cn(CCOc2ccc(F)cc2)c2ccccc12,1.98
4,Cc1ccccc1CN(c1ccc(C(=O)NCc2ccccn2)cc1)S(C)(=O)=O,-5.08
5,Cc1cc(C)c(NC(=O)CN2C(=O)NC3(CCCCC3)C2=O)c(C)c1,7.96
6,O=C1c2ccccc2CCC12N=NCC2c1ccc(Cl)cc1 (centres unmarked),1.32
7,CC(=O)N1CCOc2ccc(S(=O)(=O)N3CCC(C(=O)NCc4ccccc4)CC3)cc21,13.7
8,Fc1ccc(-n2c(Cc3ccccc3)nnc2SCc2nc(-c3ccc(Cl)cc3)no2)cc1,6.92
9,O=S(=O)(c1ccc(NCc2ccc(F)cc2)nc1)N1CCCC1,5.02
10,Cc1ccc(CN(Cc2cccnc2)C(=S)Nc2cc(Cl)ccc2C)cc1,4.8
11,Cc1cccc(N(Cc2ccccc2)C(=O)CN2C(=O)NC3(CCCC3)C2=O)c1,5.93
12,Cc1ccc(Nc2ncnc(N)n2)cc1C,10.3
13,CC(=O)OC(C(=O)NC1CCCCC1)c1ccccc1Cl (centres unmarked),8.56
14,COc1ccc(OC)c(NC(=O)c2ccc(-c3cccs3)cc2)c1,4.36
15,COc1ccc(CNc2ccc(C)c(C)c2)c(OC)c1OC.O=C(O)C(=O)O,14.4
16,Cc1cc(C)cc(N(C(C)C(=O)NCCC2=CCCCC2)S(C)(=O)=O)c1 (centres unmarked),-0.283
17,Cc1onc(-c2ccccc2Cl)c1C(=O)N1CCC(C)CC1,6.97
18,CC(=O)N1CCC2(CC1)CC(=O)c1cc(OCC(=O)NCc3ccco3)ccc1O2,-3.27
19,CCSc1nc2n(n1)C(c1cccc(F)c1)C1=C(CCCC1=O)N2 (centres unmarked),-10.9
20,N#Cc1c(-c2ccc(F)cc2)cc(C2CC2)nc1SCC(=O)c1cccs1,11.6
21,CC(C)Oc1ccc2c(=O)c(-c3ccccc3)coc2c1,15.9
22,C[C@@H]1C(=O)OC[C@H]1NC(=O)OCc1ccccc1,6.85
23,CCOc1ccc(-c2nnn(CC(=O)NCCc3c[nH]c4ccccc34)n2)cc1,6.94

row,Structure (SMILES),"hERG current change (%, negative = inhibition) at 1uM [%]"
1,O=[N+]([O-])c1ccc(N2CCCCC2)cc1,11.2
2,COc1cccc(NC(=S)NCCCN2CCOCC2)c1,11.1
3,CCOc1cccc2cc(-c3nnc(NCc4ccc5c(c4)OCO5)s3)c(=O)oc12,8.25
4,C/C(=N/NC(=O)c1cc(-c2ccc(Cl)s2)[nH]n1)c1ccco1,11.3
5,O=c1[nH]c(N/N=C/c2cc3c(cc2[N+](=O)[O-])OCO3)nc2ccccc12,14.8
6,COc1ccc(-c2n[nH]c(=S)n2-c2ccc(C)cc2C)cc1,11.7
7,Cc1nnc(SCC(=O)c2c[nH]c3ccccc23)n1C1CC1,4.62
8,CCCC(=O)Nc1ccc2c(c1)nc(CCN1CCCCC1)n2C,8.42
9,O=C(CN(c1cccc([N+](=O)[O-])c1)S(=O)(=O)c1ccccc1)NCc1ccccc1,-43.7
10,CN(C)CCCN1C(=O)c2oc3ccccc3c(=O)c2C1c1cccs1 (centres unmarked),8.34
11,CCOC(=O)C(O)(c1ccc(N(CC)C(=O)OC)cc1)C(F)(F)F (centres unmarked),7.09
12,CC(C)(C)NCc1cc(Cl)ccc1OCc1ccccc1F.Cl,-14.2
13,CC1(C)CC(=O)C=C(NNC(=O)c2ccccc2O)C1,-0.775
14,O=C(NC1CCCCC1)C(c1cccnc1)N(C(=O)c1csnn1)C1CCCC1 (centres unmarked),9.74
15,C=CCOc1ccccc1CN1CCCC(CCC(=O)N(C)CCc2ccccn2)C1 (centres unmarked),-3.73
16,CC1=CSC2=NC(=O)/C(=C\c3cccn3-c3ccccc3)C(=N)N12,6.1
17,CC(=O)CCc1ccc(Oc2nc(-c3cccnc3)nc3ccccc23)cc1,12.1
18,COc1ccc(CC(=O)Oc2ccc(F)cc2)cc1,9.37
19,COC(=O)c1sccc1NC(=O)CSc1cccc(Cl)c1Cl,4.53
20,COc1ccc2c(CC(=O)OCC(=O)Nc3cccc(C)c3)coc2c1,11.1
